According to PubChem BioAssay AID624417 (National Center for Advancing Translational Sciences (NCATS), 2012):
Out of some 410,000 compounds screened, about 6,400 (1.6%) were called active. Inconclusive means that the source gave no clear call. Such entries were picked first, then a sample of the others. The call rests on the fitted dose curve; in most records, active means well fitted inhibition curve with a large enough effect; inconclusive means small, poorly fitted or top-dose-only effect; inactive means no such curve, though single readings can be large or run the other way. Potencies of inconclusive entries are left out as doubtful fits.

biological target: Glucagon-like peptide 1 receptor (Homo sapiens) (UniProt P43220); assay: qHTS of GLP-1 Receptor Inverse Agonists (Inhibition Mode); conditions: HEK293 GLP-1R CRE-luciferase, luminescence, 24 h, GLP-1R form is constitutively active; activity change, negative = inhibition: at 38.3 µM (top of the series) unless noted; further: nearly all actives have a fitted effect of over 55% in size
Chain of UniProt P43220 (P43220 whole entry, looked up): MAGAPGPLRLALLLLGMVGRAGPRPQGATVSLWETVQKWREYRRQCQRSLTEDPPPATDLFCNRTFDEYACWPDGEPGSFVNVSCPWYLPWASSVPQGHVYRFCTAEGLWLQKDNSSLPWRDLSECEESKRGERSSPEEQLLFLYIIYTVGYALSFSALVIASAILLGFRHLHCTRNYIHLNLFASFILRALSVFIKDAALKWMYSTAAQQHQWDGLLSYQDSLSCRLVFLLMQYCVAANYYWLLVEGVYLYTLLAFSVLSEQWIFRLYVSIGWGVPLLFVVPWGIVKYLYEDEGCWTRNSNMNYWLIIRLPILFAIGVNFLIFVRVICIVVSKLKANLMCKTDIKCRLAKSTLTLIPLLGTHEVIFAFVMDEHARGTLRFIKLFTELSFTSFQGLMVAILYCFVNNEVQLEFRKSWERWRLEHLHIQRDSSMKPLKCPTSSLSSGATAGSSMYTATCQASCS
Outline: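 HEK293 cells stably co-expressing constitutively active GLP-1R and a cAMP-responsive luciferase reporter were seeded in DMEM with 10% Nu serum, given compounds after 12 h, and incubated 24 h at 37 deg C. Luminescence was then read.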
On the % scale 0 is the no-effect control and ±100 the full control effect; potency means the concentration at half of the fitted maximal effect; tags describe the fitted curve by direction and shape.

| SMILES | activity change, negative = inhibition | Potency |
| --- | --- | --- |
| O=C1CSc2ccc(S(=O)(=O)CCC(=O)NC3CCCCC3)cc2N1 | inactive: 7.38% |  |
| CCn1c(SCC(=O)N/N=C/c2c[nH]c3ccccc23)nnc1-c1ccc(Cl)cc1 |  | inconclusive [inhibitor, partial curve, poor fit] |
| O=C1NC2(NN1c1ccccc1)C1CC3CC(C1)CC2C3 (centres undefined) |  | inconclusive [inhibitor, full curve, poor fit] |
| CC1CCCC(NC(=O)COC(=O)CN2C(=O)C3CCCCC3C2=O)C1C (centres undefined) | inactive: 3.26% |  |
| c1ccc(Cn2nnc3c(N4CCc5ccccc5C4)ncnc32)cc1 |  | inconclusive [inhibitor, single point] |
| COc1cc(OC)cc(C(=O)N[C@H](C(=O)NCc2ccccc2)C(C)C)c1 |  | inconclusive [inhibitor, full curve, poor fit] |
| C#CCOCCOCCOCCNc1nc(N2CCN(C(=O)Cn3cc(CCCN=C(N)N)nn3)CC2)nc(N2CCN(C(=O)[C@H]([C@@H](C)CC)n3cc(CCCCN)nn3)CC2)n1 | inactive: 17.9% |  |
| Cc1cccc(-c2ccc(C=Nc3c(C)n(C)n(-c4ccccc4)c3=O)o2)c1 |  | inconclusive [inhibitor, single point] |
| Cc1ccccc1-n1ncc2c1CC(C)(C)CC2NC(=O)c1snnc1C (centres undefined) |  | inconclusive [inhibitor, single point] |
| Cc1ccccc1C(=O)N/N=C/c1ccsc1C | inactive: -5.48% |  |
| Cc1ccc(N(C(=O)Cn2nnc(-c3ccc(F)cc3)n2)C(C(=O)NC(C)(C)C)c2ccncc2)cc1 (centres undefined) |  | inconclusive [inhibitor, partial curve, poor fit] |
| CC(=O)Nc1ccc(-c2ccnc3c2CC(C)(C(=O)NCc2ccc(N(C)C)cc2)O3)cc1 (centres undefined) |  | inconclusive [inhibitor, partial curve, poor fit] |
| CC(C)C[C@@H](COc1ccccc1)N1CCN(Cc2ccccc2)CCC1=O |  | inconclusive [inhibitor, partial curve, poor fit] |
| CCOC(=O)C1(CC2CC2)CCN(Cc2cnc(-c3ccccc3C)nc2)CC1 |  | inconclusive [inhibitor, single point] |
| CC1CCc2c(sc(NC(=O)C3=COCCO3)c2C(N)=O)C1 (centres undefined) | inactive: 19.2% |  |
| Fc1cccc(Cn2ccc(-c3ccc4c(c3)OCO4)n2)c1 |  | inconclusive [inhibitor, single point] |
| Cc1c(C)c2c(OCC(=O)O)cc3c(c2oc1=O)CCC(C)(C)O3 | inactive: 39.8% |  |
| COc1cccc(CSc2nc3ccccc3[nH]2)c1 | inactive: -22% |  |
| Cc1cccc(NC(=S)NCc2cccs2)c1C |  | inconclusive [inhibitor, single point] |
| O=C(NCc1ccncc1)c1cc(-c2ccc(Cl)cc2)oc1C(F)(F)F |  | inconclusive [inhibitor, partial curve, poor fit] |
| Cc1c(NC(=O)c2cccc(NC(=O)Cc3ccccc3Cl)c2)c(=O)n(-c2ccccc2)n1C | inactive: 1.17% |  |
| COc1ccc(OCCCC(=O)Nc2nc(-c3ccccn3)cs2)cc1 |  | inconclusive [inhibitor, single point] |

| SMILES | activity change, negative = inhibition | Potency |
| --- | --- | --- |
| Cc1ccc(NS(=O)(=O)c2ccc(-n3cccn3)cc2)c(C)c1 |  | active: 10 µM |
| COc1ccc(-n2nnnc2SCC(=O)c2cccc(OC)c2)cc1 |  | inconclusive [inhibitor, single point] |
| Cc1cccc(C)c1OCc1nnc(SCC(=O)NCc2ccccc2)o1 | inactive: -8.96% |  |
| CCOC(=O)C(=CNc1ccc(C(F)(F)F)cc1)C(=O)OCC |  | inconclusive [inhibitor, single point] |
| CCOC(=O)N1CCC(NC(=O)c2ccc3c(c2)N(Cc2ccccc2)CCS3)CC1 |  | inconclusive [inhibitor, partial curve] |
| COC(=O)c1ccc(NCc2cc(O)ccc2O)cc1O |  | inconclusive [inhibitor, single point] |
| COc1ccc2[nH]c(=O)c(CN(c3ccc(C)c(C)c3)S(C)(=O)=O)cc2c1 | inactive: 28.6% |  |
| CC(C)(C)c1ccc(C(O)c2ncc(-c3cccc(F)c3)[nH]2)cc1 (centres undefined) |  | inconclusive [inhibitor, partial curve, poor fit] |
| C/C(=N\NC(=O)C(C)Oc1ccc([N+](=O)[O-])cc1)c1ccccn1 (centres undefined) |  | inconclusive [inhibitor, partial curve, poor fit] |
| COc1ccc(OCCN2CCC(C(=O)NC(c3ccc(F)cc3)c3ncccc3C)CC2)cc1 (centres undefined) |  | inconclusive [inhibitor, partial curve, poor fit] |
| O=C(c1cccc(C(F)(F)F)c1)N1CCN(CCc2ccccc2)CC1 |  | inconclusive [inhibitor, full curve, poor fit] |
| CC(OC(=O)c1ccccc1NCCO)C(=O)NCC(=O)Nc1ccc(F)c(F)c1F (centres undefined) |  | inconclusive [inhibitor, single point] |
| CCOC(=O)N1CCN(S(=O)(=O)c2ccc(F)c(C(=O)Nc3cccc(Cl)c3C)c2)CC1 |  | inconclusive [inhibitor, partial curve, poor fit] |
| COc1cc(/C=N\NC(=O)c2ccc(Cl)cc2)ccc1Oc1ccc([N+](=O)[O-])cn1 |  | inconclusive [inhibitor, partial curve, poor fit] |
| Cc1ccc(-n2nc(C)c3c(C)cc(=O)[nH]c32)cc1 | inactive: 0% |  |
| CCOc1cccc(CN2CCCC(C(=O)Nc3cccc(-n4cccn4)c3)C2)c1 (centres undefined) |  | inconclusive [inhibitor, single point] |
| Cn1c(C(=O)N2CCc3ccccc3C2)cc2c(=O)n3ccccc3nc21 |  | inconclusive [inhibitor, single point] |
| CCOc1cc(C)c(C(C)C)cc1S(=O)(=O)N1CCOCC1 |  | inconclusive [inhibitor, single point] |
| CCc1nnc(NS(=O)(=O)c2ccc(NC(=S)NC(=O)/C=C/c3ccccc3)cc2)s1 | inactive: 18.5% |  |
| O=C(c1nnsc1S(=O)(=O)c1ccc(Cl)cc1)N1CCOCC1 |  | inconclusive [inhibitor, single point] |
| O=c1c2oc3ccccc3c2n(Cc2cccc(F)c2)c(=O)n1Cc1ccco1 | inactive: -2.45% |  |
| CC1CCC2(CC1)NC(=O)N(CC(=O)c1ccc(Cl)s1)C2=O (centres undefined) |  | inconclusive [inhibitor, partial curve, poor fit] |

| SMILES | activity change, negative = inhibition | Potency |
| --- | --- | --- |
| CC1CCCN(S(=O)(=O)c2cc(C(=O)NCCc3ccc(S(N)(=O)=O)cc3)ccc2Cl)C1 (centres undefined) |  | inconclusive [inhibitor, partial curve, poor fit] |
| CC1(C)C2CCC1(C)C(SC(=N)N)C2 (centres undefined) |  | inconclusive [inhibitor, partial curve, poor fit] |
| CC(C)c1ccc2oc(-c3cc(NC(=O)c4cccs4)ccc3Cl)nc2c1 |  | inconclusive [inhibitor, single point] |
| COc1ccc(Cn2nnnc2C(CC(C)C)N2CCN(c3ccccc3)CC2)cc1 (centres undefined) |  | inconclusive [inhibitor, single point] |
| COc1ccc(C(=O)Nc2cc(C(C)C)c(O)c(S(=O)(=O)c3ccc(OC)cc3)c2C)cc1 |  | inconclusive [inhibitor, single point] |
| CCOC(=O)CC1(C)Sc2ccccc2N1S(=O)(=O)c1ccc(C)cc1 (centres undefined) |  | inconclusive [inhibitor, single point] |
| Cc1ccccc1N1CCN(S(=O)(=O)c2nnc(NC(=O)c3ccccc3)s2)CC1 |  | inconclusive [inhibitor, single point] |
| c1ccc(Cc2nnc(SCc3nc(-c4cccs4)no3)n2-c2ccccc2)cc1 |  | inconclusive [inhibitor, single point] |
| COc1ccc(S(=O)(=O)c2c(Nc3ccc(F)cc3)sc(C(=O)c3ccc(C)cc3C)c2N)cc1 |  | inconclusive [inhibitor, partial curve] |
| CC(C)C(=O)Nc1cccc(C(=O)NCc2ccc3c(c2)OCO3)c1 | inactive: -1.35% |  |
| CC(C)(C)CC(=O)NC(=S)N1CCCCCC1 | inactive: 2.56% |  |
| COc1ccc(S(=O)(=O)CC(=O)c2cc3cc(Br)ccc3oc2=O)cc1 |  | inconclusive [inhibitor, partial curve, poor fit] |
| CNC(=O)c1ccsc1NC(=O)c1ccc(S(=O)(=O)N2CCc3ccccc32)cc1 |  | inconclusive [inhibitor, single point] |
| COc1cccc(C(C(=O)NCc2ccco2)N(C(=O)Cn2nnc3ccccc32)C2CC2)c1OC (centres undefined) | inactive: 1.69% |  |
| O=C(CN1C(=O)NC(c2ccccc2)(c2ccccc2)C1=O)NCc1ccccc1 |  | inconclusive [inhibitor, single point] |
| COc1ccc(/C=C/C(=O)N2CC(C)OC(C)C2)cc1OC (centres undefined) | inactive: 10.5% |  |
| CCN(CCCNC(=O)CCCn1c(=O)[nH]c2ccccc2c1=O)c1cccc(C)c1 |  | inconclusive [inhibitor, partial curve, poor fit] |
| O=C(N=C1SC2CS(=O)(=O)CC2N1c1cc(Cl)ccc1Cl)C1CC1 (centres undefined) |  | inconclusive [inhibitor, single point] |
| O=C1CN(C(=O)c2ccc(Br)o2)C(c2ccc(F)cc2)c2cc(F)ccc2N1 (centres undefined) |  | inconclusive [inhibitor, partial curve, poor fit] |
| Cc1ccccc1C(=O)NC1CCN(CC(=O)N2CCCCC2C)CC1 (centres undefined) | inactive: -9.63% |  |
